Data on 27 compounds can be found in the antibiotic and cytotoxicity screens of Wong et al. (2023).

The structures appear in SMILES notation. Some of the results follow.

One test relates to HSkMC. In words: cytotoxicity call (relative viability < 0.9). To be noted: 10 µM.
Another test relates to HepG2. Briefly: cytotoxicity call (relative viability < 0.9). Conditions: 10 µM.
For the next test, the system named is S. aureus RN4220. Briefly: growth inhibition call (relative growth <= 0.2). Conditions: 50 µM.

With `C[C@@H]1CN([C@@H](C)CO)C(=O)c2cc(NS(=O)(=O)c3ccc(Cl)cc3)ccc2O[C@@H](C)CCCCO[C@H]1CN(C)Cc1ccc(C(F)(F)F)cc1`, the cytotoxicity call with HSkMC and in the test with HepG2 was “active” each time. The growth inhibition call with S. aureus RN4220 is “inactive”.

Consider `O=C(NCc1ccccc1)[C@@H](c1ccco1)N(Cc1ccc(Br)cc1)C(=O)Cc1ccccc1`, for which the cytotoxicity call in the test with HSkMC and with HepG2 was “inactive” each time. Besides, the growth inhibition call with S. aureus RN4220 is “inactive”.

`CCS(=O)(=O)N1C[C@]2(CCN(CC2)Cc2cccc(c2)OC)c2c(n(c3cc(ccc23)OC)C)[C@H]1CO`: the cytotoxicity call with HSkMC and in the test with HepG2 was “inactive” throughout. Further, the growth inhibition call in the test on S. aureus RN4220 was “inactive”.

As for `COCC#Cc1ccc2c(c1)O[C@@H](CN(C)S(=O)(=O)c1ccc(C)cc1)[C@H](C)CN([C@@H](C)CO)S2(=O)=O`, the cytotoxicity call in the test on HSkMC and in the test on HepG2 was “inactive” in each case. For the same compound, the growth inhibition call in the test on S. aureus RN4220 was “inactive”.

Turning to `C[C@H]1CN([C@@H](C)CO)C(=O)c2cccc(NS(C)(=O)=O)c2O[C@H]1CN(C)Cc1ccc2c(c1)OCO2`, the cytotoxicity call with HSkMC and in the test on HepG2 was “inactive” each time. Further, the growth inhibition call in the test with S. aureus RN4220 was “inactive”.

In the case of `O=C(C[C@H]1C[C@H]2c3cc(NC(=O)c4ccc5c(c4)OCO5)ccc3O[C@H]2[C@H](CO)O1)NCCc1ccccc1`, the cytotoxicity call in the test on HSkMC and in the test with HepG2 was “inactive” throughout. Further, the growth inhibition call with S. aureus RN4220 is “inactive”.

On to `Cc1noc(C)c1S(=O)(=O)N(C)C[C@H]1Oc2c(NC(=O)C3CCCCC3)cccc2C(=O)N([C@@H](C)CO)C[C@H]1C`, for which the cytotoxicity call in the test with HSkMC and with HepG2 was “inactive” throughout. In the test on S. aureus RN4220, the growth inhibition call is “inactive”.

In the case of `C[C@@H]1CN([C@@H](C)CO)C(=O)Cc2cc(NC(=O)CCN3CCOCC3)ccc2O[C@H]1CN(C)C(=O)Nc1ccccc1`, the cytotoxicity call in the test with HSkMC and with HepG2 was “inactive” in each case. Also, the growth inhibition call in the test with S. aureus RN4220 was “inactive”.

Regarding `C[C@@H]1CN([C@H](C)CO)C(=O)Cc2cc(NC(=O)CCCCCC(=O)Nc3ccccc3N)ccc2O[C@H]1CN(C)C(=O)Nc1cccc2ccccc12`, the cytotoxicity call with HSkMC and in the test on HepG2 was “inactive” each time. Further, the growth inhibition call in the test on S. aureus RN4220 was “inactive”.

As for `Cc1noc(C)c1NC(=O)Nc1ccc2c(c1)C(=O)N([C@@H](C)CO)C[C@@H](C)[C@@H](CN(C)C(=O)C1CCCCC1)OCCCC[C@H](C)O2`, the cytotoxicity call in the test with HSkMC and in the test on HepG2 was “inactive” each time. Also, the growth inhibition call in the test on S. aureus RN4220 is “inactive”.

In the case of `CCCCCOc1ccc([C@H]2C(C(=O)c3ccc4c(c3)OCCO4)=C(O)C(=O)N2Cc2ccco2)cc1`, the cytotoxicity call in the test on HSkMC and in the test with HepG2 was “inactive” each time. For the same compound, the growth inhibition call in the test on S. aureus RN4220 was “inactive”.

With `CC(=O)N(C)C[C@@H]1Oc2ncc(C#CC(C)(C)O)cc2C(=O)N([C@H](C)CO)C[C@@H]1C`, the cytotoxicity call in the test with HSkMC and with HepG2 was “inactive” throughout. For the same compound, in the test with S. aureus RN4220, the growth inhibition call was “inactive”.

With `Cc1noc(C)c1S(=O)(=O)N(C)C[C@H]1OCCCC[C@@H](C)Oc2ccc(NC(=O)Nc3cccc4ccccc34)cc2C(=O)N([C@@H](C)CO)C[C@H]1C`, the cytotoxicity call with HSkMC and with HepG2 was “inactive” each time. Further, the growth inhibition call with S. aureus RN4220 is “inactive”.

As for `COc1ccc(S(=O)(=O)N2C[C@@H](O)COC[C@H]3O[C@H](CC(=O)NCCCN(C)C)CC[C@@H]32)cc1`, the cytotoxicity call with HSkMC and in the test on HepG2 was “inactive” in each case. Moreover, the growth inhibition call in the test with S. aureus RN4220 is “inactive”.

As to `Nc1nc(=O)c2c([nH]1)NCC(CNc1ccc(C(=O)NC(CCC(=O)[O-])C(=O)[O-])cc1)N2C=O.[Ca+2]` (stereo unspecified), the cytotoxicity call in the test with HSkMC and in the test with HepG2 was “inactive” each time. In the test on S. aureus RN4220, the growth inhibition call was “inactive”.

Turning to `C[C@@H]1CN([C@@H](C)CO)S(=O)(=O)c2ccc(C#Cc3ccccc3)cc2O[C@H]1CN(C)S(=O)(=O)c1cn(C)cn1`, the cytotoxicity call in the test on HSkMC and with HepG2 was “inactive” each time. In addition, the growth inhibition call in the test on S. aureus RN4220 is “inactive”.

`C[C@H](CO)N1C[C@H](C)[C@@H](CN(C)Cc2ccncc2)Oc2ccc(NC(=O)Nc3ccc(C(F)(F)F)cc3)cc2C1=O`: the cytotoxicity call with HSkMC and in the test with HepG2 was “inactive” each time. Besides, in the test on S. aureus RN4220, the growth inhibition call was “inactive”.

Turning to `C[C@@H]1CN([C@@H](C)CO)C(=O)c2cc(C#CC3(O)CCCC3)cnc2O[C@@H]1CN(C)C(=O)CN(C)C`, the cytotoxicity call in the test on HSkMC and in the test with HepG2 was “inactive” throughout. In the test on S. aureus RN4220, the growth inhibition call was “inactive”.

In the case of `C[C@H]1CN([C@@H](C)CO)C(=O)c2cc(NC(=O)CCCCCC(=O)Nc3ccccc3N)ccc2O[C@H]1CN(C)Cc1ccc(C(F)(F)F)cc1`, the cytotoxicity call in the test with HSkMC and with HepG2 was “inactive” throughout. Also, the growth inhibition call in the test on S. aureus RN4220 was “inactive”.

On to `COCC(=O)N1C[C@@H](C)[C@@H](OC)CN(C)C(=O)c2cc(NC(=O)c3cc(C)on3)ccc2OC[C@@H]1C`, for which the cytotoxicity call with HSkMC and in the test on HepG2 was “inactive” in each case. Further, in the test on S. aureus RN4220, the growth inhibition call is “inactive”.

Consider `C[C@H](C(=O)NC1CCCC1)N(C(=O)Cn1nnc(-c2ccc3c(c2)OC(F)(F)O3)n1)C1CCCCC1`, for which the cytotoxicity call with HSkMC and in the test with HepG2 was “inactive” in each case. The growth inhibition call with S. aureus RN4220 was “inactive”.

Turning to `Cc1nccn1CC1CCc2c(c3ccccc3n2C)C1=O.Cl` (stereo unspecified), the cytotoxicity call in the test with HSkMC and in the test with HepG2 was “inactive” in each case. For the same compound, the growth inhibition call in the test with S. aureus RN4220 was “inactive”.

`CC(C)NC(=O)Nc1ccc2c(c1)C(=O)N([C@@H](C)CO)C[C@H](C)[C@@H](CN(C)C(=O)C1CCCCC1)OCCCC[C@@H](C)O2`: the cytotoxicity call in the test with HSkMC and in the test on HepG2 was “inactive” each time. Besides, in the test with S. aureus RN4220, the growth inhibition call was “inactive”.

Turning to `O=C(C[C@H]1C[C@H]2c3cc(NS(=O)(=O)c4ccccc4)ccc3O[C@H]2[C@H](CO)O1)NC1CCCCC1`, the cytotoxicity call with HSkMC and in the test on HepG2 was “inactive” throughout. Further, in the test on S. aureus RN4220, the growth inhibition call was “inactive”.

Turning to `CC[C@@H](C)[C@H]1NC(=O)NC1=O`, the cytotoxicity call in the test on HSkMC and in the test with HepG2 was “inactive” in each case. For the same compound, in the test on S. aureus RN4220, the growth inhibition call was “inactive”.

Regarding `O=C(C[C@H]1C[C@@H]2c3cc(NS(=O)(=O)c4ccc(F)cc4)ccc3O[C@@H]2[C@@H](CO)O1)NCc1ccncc1`, the cytotoxicity call in the test on HSkMC (human skeletal muscle cells) and in the test on HepG2 was “inactive” in each case. Further, in the test on S. aureus RN4220, the growth inhibition call was “inactive”.

As for `CC(C)NC(=O)Nc1ccc2c(c1)C(=O)N([C@H](C)CO)C[C@H](C)[C@@H](CN(C)S(C)(=O)=O)OCCCC[C@H](C)O2`, the cytotoxicity call in the test with HSkMC and in the test on HepG2 was “inactive” in each case. For the same compound, the growth inhibition call in the test on S. aureus RN4220 is “inactive”.
